From PMC3287209 (Nucleic Acids Research, 2012)

Target: XRCC4 wild-type (human, UniProt Q13426)
Assay: native gel or EMSA

B1: XLF–K293A (natural protein)
chain: not shown
binding result: binds
